Article PMC12820563
The list shows a part of the results. The list includes weakly bound sequences.

What follows are sequences tested against T1, MBP-FoxP3dN (UniProt Q99JB6) (assay: PD-seq (MBP pull-down with sequencing)). Details: 20 mM Tris-HCl pH 7.5, 100 mM NaCl, 1.5 mM MgCl2, 0.4 uM protein, 0.1 uM dsDNA library, 30 min, room temperature, amylose pull-down; high values mean tight binding; double strand, one strand shown.
T1 sequence: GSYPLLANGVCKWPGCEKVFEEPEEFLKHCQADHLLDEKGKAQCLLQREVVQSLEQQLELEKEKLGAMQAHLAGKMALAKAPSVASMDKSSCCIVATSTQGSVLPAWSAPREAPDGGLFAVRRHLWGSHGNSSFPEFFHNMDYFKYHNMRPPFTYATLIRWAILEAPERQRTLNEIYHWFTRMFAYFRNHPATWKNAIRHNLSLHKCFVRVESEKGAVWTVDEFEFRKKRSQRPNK
With “GATGATTGTTCTCCCAGCTGATGAATTCGCCCGTTCGAGTAAACAAATTTTCCTAATCTTTCTGTTCAAGCGCCATCTAC” the binding signal (RPM ratio (pull-down/input)) was 0.332.
In the case of “GATGATTGTTCTCCCAGCTGATGAATTGAGCGACTCGAGTAAACAAATTTTCCTAATCTTTCTGTTCAAGCGCCATCTAC”, the binding signal (RPM ratio (pull-down/input)) is reported as 1.55.
Work on “GATGATTGTTCTCCCAGCTGATGAATTGACACCTTCGAGTAAACAAATTTTCCTAATCTTTCTGTTCAAGCGCCATCTAC” yielded a binding signal (RPM ratio (pull-down/input)) of 0.536.
“GATGATTGTTCTCCCAGCTGATGAATTATAGTGGTCGAGTAAACAAATTTTCCTAATCTTTCTGTTCAAGCGCCATCTAC” showed a binding signal (RPM ratio (pull-down/input)) of 0.617.
“GATGATTGTTCTCCCAGCTGATGAATTCACAGCCTCGAGTAAACAAATTTTCCTAATCTTTCTGTTCAAGCGCCATCTAC” gave a binding signal (RPM ratio (pull-down/input)) of 0.33.
With “GATGATTGTTCTCCCAGCTGATGAATTTGCGTTTTCGAGTAAACAAATTTTCCTAATCTTTCTGTTCAAGCGCCATCTAC” the binding signal (RPM ratio (pull-down/input)) was 2.69.
With “GATGATTGTTCTCCCAGCTGATGAATTATGCGCATCGAGTAAACAAATTTTCCTAATCTTTCTGTTCAAGCGCCATCTAC” the binding signal (RPM ratio (pull-down/input)) was 2.3.
“GATGATTGTTCTCCCAGCTGATGAATTCGCAGGGTCGAGTAAACAAATTTTCCTAATCTTTCTGTTCAAGCGCCATCTAC” was tested, and the binding signal (RPM ratio (pull-down/input)) was 0.31.
With “GATGATTGTTCTCCCAGCTGATGAATTGGAAATCTCGAGTAAACAAATTTTCCTAATCTTTCTGTTCAAGCGCCATCTAC” the binding signal (RPM ratio (pull-down/input)) was 0.256.
Sequence “GATGATTGTTCTCCCAGCTGATGAATTCACAGGGTCGAGTAAACAAATTTTCCTAATCTTTCTGTTCAAGCGCCATCTAC” has a binding signal (RPM ratio (pull-down/input)) of 0.208.
“GATGATTGTTCTCCCAGCTGATGAATTCCGGTCTTCGAGTAAACAAATTTTCCTAATCTTTCTGTTCAAGCGCCATCTAC” gave a binding signal (RPM ratio (pull-down/input)) of 0.382.
Work on “GATGATTGTTCTCCCAGCTGATGAATTGCCGCAGTCGAGTAAACAAATTTTCCTAATCTTTCTGTTCAAGCGCCATCTAC” yielded a binding signal (RPM ratio (pull-down/input)) of 0.77.
In the case of “GATGATTGTTCTCCCAGCTGATGAATTGATTAATTCGAGTAAACAAATTTTCCTAATCTTTCTGTTCAAGCGCCATCTAC”, the binding signal (RPM ratio (pull-down/input)) is reported as 0.365.
“GATGATTGTTCTCCCAGCTGATGAATTCCCTGCATCGAGTAAACAAATTTTCCTAATCTTTCTGTTCAAGCGCCATCTAC” gave a binding signal (RPM ratio (pull-down/input)) of 0.746.
Work on “GATGATTGTTCTCCCAGCTGATGAATTCCCAATCTCGAGTAAACAAATTTTCCTAATCTTTCTGTTCAAGCGCCATCTAC” yielded a binding signal (RPM ratio (pull-down/input)) of 0.289.
With “GATGATTGTTCTCCCAGCTGATGAATTTCACCACTCGAGTAAACAAATTTTCCTAATCTTTCTGTTCAAGCGCCATCTAC” the binding signal (RPM ratio (pull-down/input)) was 0.417.
“GATGATTGTTCTCCCAGCTGATGAATTATCTTGCTCGAGTAAACAAATTTTCCTAATCTTTCTGTTCAAGCGCCATCTAC” showed a binding signal (RPM ratio (pull-down/input)) of 0.291.
Work on “GATGATTGTTCTCCCAGCTGATGAATTCACGGCGTCGAGTAAACAAATTTTCCTAATCTTTCTGTTCAAGCGCCATCTAC” yielded a binding signal (RPM ratio (pull-down/input)) of 0.434.
“GATGATTGTTCTCCCAGCTGATGAATTTAGACTTTCGAGTAAACAAATTTTCCTAATCTTTCTGTTCAAGCGCCATCTAC” was tested, and the binding signal (RPM ratio (pull-down/input)) was 1.49.
“GATGATTGTTCTCCCAGCTGATGAATTTCAGGGTTCGAGTAAACAAATTTTCCTAATCTTTCTGTTCAAGCGCCATCTAC” was tested, and the binding signal (RPM ratio (pull-down/input)) was 0.328.
Sequence “GATGATTGTTCTCCCAGCTGATGAATTTTATTCGTCGAGTAAACAAATTTTCCTAATCTTTCTGTTCAAGCGCCATCTAC” has a binding signal (RPM ratio (pull-down/input)) of 0.641.
“GATGATTGTTCTCCCAGCTGATGAATTGATTGCTTCGAGTAAACAAATTTTCCTAATCTTTCTGTTCAAGCGCCATCTAC” showed a binding signal (RPM ratio (pull-down/input)) of 1.45.
In the case of “GATGATTGTTCTCCCAGCTGATGAATTTATGTGGTCGAGTAAACAAATTTTCCTAATCTTTCTGTTCAAGCGCCATCTAC”, the binding signal (RPM ratio (pull-down/input)) is reported as 3.21.
“GATGATTGTTCTCCCAGCTGATGAATTATGGTTGTCGAGTAAACAAATTTTCCTAATCTTTCTGTTCAAGCGCCATCTAC” gave a binding signal (RPM ratio (pull-down/input)) of 1.81.
Work on “GATGATTGTTCTCCCAGCTGATGAATTAAGGCGCTCGAGTAAACAAATTTTCCTAATCTTTCTGTTCAAGCGCCATCTAC” yielded a binding signal (RPM ratio (pull-down/input)) of 0.847.
For “GATGATTGTTCTCCCAGCTGATGAATTAATCCGATCGAGTAAACAAATTTTCCTAATCTTTCTGTTCAAGCGCCATCTAC”, the binding signal (RPM ratio (pull-down/input)) was 0.184.
Sequence “GATGATTGTTCTCCCAGCTGATGAATTACGGAAGTCGAGTAAACAAATTTTCCTAATCTTTCTGTTCAAGCGCCATCTAC” has a binding signal (RPM ratio (pull-down/input)) of 0.267.
In the case of “GATGATTGTTCTCCCAGCTGATGAATTGATGAGCTCGAGTAAACAAATTTTCCTAATCTTTCTGTTCAAGCGCCATCTAC”, the binding signal (RPM ratio (pull-down/input)) is reported as 0.366.
Sequence “GATGATTGTTCTCCCAGCTGATGAATTGGCGACGTCGAGTAAACAAATTTTCCTAATCTTTCTGTTCAAGCGCCATCTAC” has a binding signal (RPM ratio (pull-down/input)) of 0.41.
Work on “GATGATTGTTCTCCCAGCTGATGAATTCAGAGTGTCGAGTAAACAAATTTTCCTAATCTTTCTGTTCAAGCGCCATCTAC” yielded a binding signal (RPM ratio (pull-down/input)) of 0.958.
“GATGATTGTTCTCCCAGCTGATGAATTGCTTTTTTCGAGTAAACAAATTTTCCTAATCTTTCTGTTCAAGCGCCATCTAC” was tested, and the binding signal (RPM ratio (pull-down/input)) was 1.46.
